Experimental data taken from PubChem BioAssay AID485364 (National Center for Advancing Translational Sciences (NCATS), 2010).
The whole screen tested about 360,000 compounds, of which about 11,000 (3.1%) were called active. The inconclusive results got no clear call from the source; some entries with a clear call stand among them for comparison. Calls come from the whole dose curve; as a rule, active = well fitted inhibition curve with a large enough effect; inconclusive = small, poorly fitted or top-dose-only effect; inactive = no such curve, though single readings can be large or run the other way. No potency is given beside an inconclusive call; the fits are too rough.

Each compound was assayed against Schistosoma mansoni thioredoxin glutathione reductase (TGR) (UniProt Q962Y6) (assay: qHTS Assay for the Inhibitors of Schistosoma Mansoni Peroxiredoxins). Details: purified TGR, DTNB reduction, TNB absorbance 405 nm; series mostly up to 114 µM.
How it was run: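 First, TGR (20 nM dispensed) and NADPH were mixed with compound. Second, a 15 min room-temperature incubation followed. Third, further NADPH and then DTNB were added to start the reaction. Finally, TNB absorbance was monitored kinetically.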
Note: nearly all actives have a fitted effect of over 60% in size.
Potency is the fitted concentration of half-maximal effect; tags give direction and shape of the fitted curve.

Question: How did the Potency turn out when CCN(CC)Cc1c(NC(=O)c2ccccc2)sc(C)c1C was run?
Answer: The Potency was active: 8.91 µM.

Question: For COCCn1c(-c2ccco2)csc1=Nc1cccnc1, which Potency is on record?
Answer: The Potency was inconclusive [inhibitor, partial curve, poor fit].

Question: For COc1cccc(N2CCN(S(=O)(=O)c3cc4c(cc3C)N(C)CCO4)CC2)c1, which Potency is on record?
Answer: The Potency was inconclusive [inhibitor, partial curve].

Question: How did the Potency turn out when Cc1[nH]n(C(N)=S)c(=O)c1N=Nc1cccc(Cl)c1 was run?
Answer: The Potency was inconclusive [inhibitor, partial curve].

Question: Cc1ccc(C)c(OCc2nc3ccccc3[nH]2)c1 was tested. Which Potency did it give?
Answer: The Potency was inconclusive [inhibitor, single point].

Question: With COc1cccc(CN2CC(C(=O)NCCc3ccc(C)o3)CCC2=O)c1 (centres undefined) as the compound, how does the Potency read?
Answer: The Potency was active: 12.6 µM.

Question: C=C(C)C(=O)Nc1cccc(C2=NOC3(C2)C[C@@H](C(N)=O)N(C(=O)/C=C/C=C/C)C3)c1 (some centres undefined) was tested. Which Potency did it give?
Answer: Its Potency is active: 8.91 µM.

Question: With CCOC(=O)c1c(/N=C/N(C)C)sc(/C=N/Nc2ccccc2)c1-c1ccc(Cl)cc1 as the compound, how does the Potency read?
Answer: The Potency was “inactive”.

Question: Which Potency does the source give for CC(=O)Nc1nc2ccccc2[nH]1 here?
Answer: Its Potency is “inactive”.

Question: How did the Potency turn out when O=C(C1=C[C@H](C2CC2)C[C@H](OCc2ccc(CO)cc2)O1)N1CCN(Cc2ccccc2)CC1 was run?
Answer: The Potency was inconclusive [inhibitor, partial curve].

Question: How did the Potency turn out when CCOC(=O)c1cc(-c2ccncc2)nc2c1c(C)nn2C was run?
Answer: The Potency was inconclusive [inhibitor, single point].

Question: Which Potency does the source give for CCCCCCCCCC(=O)Nc1cccnc1 here?
Answer: The Potency was “inactive”.

Question: How did the Potency turn out when CCOC(=O)C1=C(C)OC(N)=C(C#N)C1c1ccc(C)s1 (centres undefined) was run?
Answer: The Potency was inconclusive [inhibitor, partial curve].

Question: Cn1cccc1CC(=O)N/N=C/c1ccc(Cl)cc1 was tested. Which Potency did it give?
Answer: Its Potency is inconclusive [inhibitor, partial curve].

Question: With CC(C)N(c1ccccc1)c1ccc(NC(=O)CCl)cc1 as the compound, how does the Potency read?
Answer: Its Potency is active: 14.1 µM.

Question: How did the Potency turn out when CCc1cc2ccc(OC)cc2nc1SCC(=O)NNC(=O)c1ccco1 was run?
Answer: The Potency was active: 8.91 µM.

Question: How did the Potency turn out when Cc1cc(C(=O)CSc2nnc(-c3ccc4c(c3)OCO4)o2)c(C)n1-c1ccc(F)cc1 was run?
Answer: Its Potency is inconclusive [inhibitor, single point].

Question: For CCN(CC)CCNC(=O)c1ccc(NC(=O)c2cccc(S(=O)(=O)N3c4ccccc4CC3C)c2)cc1 (centres undefined), which Potency is on record?
Answer: The Potency was “inactive”.

Question: With Cc1cccc(N2CCN(C(=O)CCCn3c(=O)[nH]c4ccsc4c3=O)CC2C)c1 (centres undefined) as the compound, how does the Potency read?
Answer: Its Potency is “inactive”.

Question: For COc1cccc(C2=CC(c3ccc(OC)c(OC)c3OC)n3nnnc3N2)c1 (centres undefined), which Potency is on record?
Answer: The Potency was inconclusive [inhibitor, partial curve].

Question: With O=c1[nH]nc(Cc2ccc(-c3ccc(Cl)cc3)o2)c2ccccc12 as the compound, how does the Potency read?
Answer: The Potency was inconclusive [inhibitor, partial curve].

Question: How did the Potency turn out when CC1(C)CC(=O)/C(=C\c2cccc([N+](=O)[O-])c2)C(C)(C)N1 was run?
Answer: The Potency was inconclusive [inhibitor, partial curve].

Question: How did the Potency turn out when Cc1ccc(NC(=S)NC(NC(=O)c2ccco2)C(Cl)(Cl)Cl)cc1 (centres undefined) was run?
Answer: The Potency was inconclusive [inhibitor, partial curve].

Question: O=C(NC1C(=O)NNC1c1ccccc1)c1ccccc1 (centres undefined) was tested. Which Potency did it give?
Answer: The Potency was inconclusive [inhibitor, single point].

Question: Which Potency does the source give for Cc1nc(-c2ccc(NC(=O)c3ccccc3Br)cc2)cs1 here?
Answer: The Potency was “inactive”.

Question: How did the Potency turn out when Cc1ccccc1CN1CCN(Cc2cc(=O)c3ccccc3[nH]2)CC1CCO (centres undefined) was run?
Answer: The Potency was inconclusive [inhibitor, partial curve, poor fit].

Question: How did the Potency turn out when CN(C)/N=C/C=C1\CCC/C(=C\c2ccc(F)c(F)c2)C1=O was run?
Answer: The Potency was active: 15.8 µM.

Question: For CN1C/C(=C/c2ccsc2)C(=O)/C(=C/c2ccsc2)C1, which Potency is on record?
Answer: The Potency was inconclusive [inhibitor, partial curve].

Question: CCOC(=O)C1C(=O)C(C(=O)OCC)C(c2cccnc2)NC1c1cccnc1 (centres undefined) was tested. Which Potency did it give?
Answer: The Potency was active: 25.1 µM.

Question: For COc1cc2c(c(OC)c1OC)-c1ccc(OC)c(=O)cc1[C@@H](N(C)CC#CCO)CC2, which Potency is on record?
Answer: Its Potency is inconclusive [inhibitor, partial curve].

Question: For COc1ccc(CN2CCN(C(=O)Cn3ncn4cccc4c3=O)CC2)c(OC)c1OC, which Potency is on record?
Answer: Its Potency is inconclusive [inhibitor, partial curve, poor fit].

Question: How did the Potency turn out when COC(=O)C(NC(=O)COc1ccccc1)(Nc1nc2c(s1)CCCC2)C(F)(F)F (centres undefined) was run?
Answer: The Potency was inconclusive [inhibitor, full curve].

Question: For CCOC(=O)C1CCCN(C(=O)C2CCN(c3nnc(C)c4c(C)n(-c5ccccc5)nc34)CC2)C1 (centres undefined), which Potency is on record?
Answer: The Potency was “inactive”.

Question: Cc1ccc(OCC(=O)c2cc(C)n(C3CC3)c2C)c([N+](=O)[O-])n1 was tested. Which Potency did it give?
Answer: The Potency was “inactive”.

Question: With CCCCCC(=O)N1CC2(CC(c3cccc(NC(=O)[C@@H]4CCC(=O)N4)c3)=NO2)C[C@@H]1C(N)=O (some centres undefined) as the compound, how does the Potency read?
Answer: Its Potency is inconclusive [inhibitor, partial curve].

Question: How did the Potency turn out when COCc1nc2oc3ccccc3c(=O)c2cc1C(=O)OC was run?
Answer: The Potency was “inactive”.

Question: With Cc1ccc(N2NC(=O)/C(=C\c3cc4c(cc3[N+](=O)[O-])OCO4)C2=O)cc1C as the compound, how does the Potency read?
Answer: Its Potency is inconclusive [inhibitor, partial curve].

Question: With Cc1cc(C)c(-c2csc(NC(=O)/C=C/c3cccs3)n2)c(C)c1 as the compound, how does the Potency read?
Answer: The Potency was “inactive”.

Question: How did the Potency turn out when CC(C)(C)C1CC=C2C(C#N)=C(N)C(C#N)(C#N)C(c3cccs3)C2C1 (centres undefined) was run?
Answer: Its Potency is inconclusive [inhibitor, partial curve].

Question: How did the Potency turn out when Cc1ccc(N2C(=O)C3N=NN(CC(=O)N4N=C(c5cccc6ccccc56)CC4c4ccccc4)C3C2=O)cc1 (centres undefined) was run?
Answer: The Potency was inconclusive [inhibitor, partial curve].

Question: Which Potency does the source give for Cc1ccc(SCc2[nH]nc3c2C(c2ccco2)C(C#N)=C(N)O3)cc1 (centres undefined) here?
Answer: The Potency was inconclusive [inhibitor, single point].

Question: How did the Potency turn out when Cc1ccccc1OCCOC(=O)c1c(-c2ccccc2)noc1C was run?
Answer: The Potency was “inactive”.

Question: Cc1ccc(S(=O)(=O)N(C)C)cc1NC(=S)Nc1ccc2cn[nH]c2c1 was tested. Which Potency did it give?
Answer: Its Potency is active: 17.8 µM.

Question: Cc1ccc2c(c1Cl)NC(C(=O)O)C1CC(Sc3ccccc3[N+](=O)[O-])C(Cl)C21 (centres undefined) was tested. Which Potency did it give?
Answer: Its Potency is inconclusive [inhibitor, partial curve, poor fit].
